From PubChem BioAssay (Tox21)
The inconclusive results got no clear call from the source. No potency is given beside an inconclusive call; the fits are too rough.

target: Bile acid receptor (Homo sapiens) (UniProt Q96RI1); test: qHTS assay to identify small molecule antagonists of the farnesoid-X-receptor (FXR) signaling pathway (AID 743217); conditions: HEK293T FXR-UAS-bla, beta-lactamase ratio, CDCA-stimulated, 16 h; activity change, negative = inhibition: at 62.6 µM (top of the series; calls come from the whole dose curve) unless noted
Procedure, shortened: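 Quantitative HTS, beta-lactamase reporter format: FXR-UAS-bla HEK 293T cells co-treated 16 h at 37 °C with compounds and 50 uM final chenodeoxycholic acid, then read by B/G FRET fluorescence.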
% is set by controls: 0 for no effect and ±100 for the full control effect; potency is the fitted concentration of half-maximal effect; tags give direction and shape of the fitted curve or compound fluorescence and quenching.

Chain of UniProt Q96RI1 (Q96RI1 whole entry, looked up): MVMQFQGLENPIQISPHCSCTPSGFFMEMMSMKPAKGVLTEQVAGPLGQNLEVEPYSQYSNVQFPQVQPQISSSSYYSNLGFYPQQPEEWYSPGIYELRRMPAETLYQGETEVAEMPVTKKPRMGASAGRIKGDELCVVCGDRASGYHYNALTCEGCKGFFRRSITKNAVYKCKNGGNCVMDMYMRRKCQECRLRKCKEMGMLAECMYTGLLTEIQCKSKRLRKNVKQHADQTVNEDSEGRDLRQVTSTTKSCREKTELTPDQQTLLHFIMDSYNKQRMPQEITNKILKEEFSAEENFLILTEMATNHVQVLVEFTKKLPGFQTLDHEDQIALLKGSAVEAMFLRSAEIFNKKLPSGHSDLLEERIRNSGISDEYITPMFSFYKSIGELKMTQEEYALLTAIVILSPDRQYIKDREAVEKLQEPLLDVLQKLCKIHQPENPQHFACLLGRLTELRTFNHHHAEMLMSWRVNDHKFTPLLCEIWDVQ

SMILES | Potency | activity change, negative = inhibition
CC(C)[C@H](C(=O)OC(C#N)c1cccc(Oc2ccccc2)c1)c1ccc(OC(F)F)cc1 (some centres not stated) | inconclusive [inhibitor, partial curve] | –
C[C@]12C=CC3=C4CCC(=O)C=C4CC[C@H]3[C@@H]1CC[C@@H]2O | inconclusive [single point] | –
FC(F)C(F)(F)OCC(Cn1cncn1)c1ccc(Cl)cc1Cl (configuration not stated) | inconclusive [inhibitor, single point] | –
C[C@]12Cc3cn[nH]c3C[C@@H]1CC[C@@H]1[C@@H]2CC[C@@]2(C)[C@H]1CC[C@]2(C)O | – | inconclusive: -39.5%
CO/N=C(/C1=NOCCO1)c1ccccc1Oc1ncnc(Oc2ccccc2Cl)c1F | inconclusive | –
N#Cc1sc2c(=O)c3ccccc3c(=O)c=2sc1C#N | inconclusive | –
CC(C)[C@@H](Nc1ccc(C(F)(F)F)cc1Cl)C(=O)OC(C#N)c1cccc(Oc2ccccc2)c1 (some centres not stated) | inconclusive [inhibitor, partial curve] | –
